# Test results: PubChem BioAssay AID504332 (National Center for Advancing Translational Sciences (NCATS), 2011)
# Screen size: about 350,000 compounds; about 31,000 (8.9%) were called active. The inconclusive results got no clear call from the source; some entries with a clear call stand among them for comparison. The call rests on the fitted dose curve; in most records, active means well fitted inhibition curve with a large enough effect; inconclusive means small, poorly fitted or top-dose-only effect; inactive means no such curve, though single readings can be large or run the other way. Potencies beside an inconclusive call are fits to weak or partial responses and may not hold up.
# Biological target: Histone-lysine N-methyltransferase EHMT2 (Homo sapiens) (UniProt Q96KQ7)
# UniProt Q96KQ7, sequence (Q96KQ7 whole entry, looked up): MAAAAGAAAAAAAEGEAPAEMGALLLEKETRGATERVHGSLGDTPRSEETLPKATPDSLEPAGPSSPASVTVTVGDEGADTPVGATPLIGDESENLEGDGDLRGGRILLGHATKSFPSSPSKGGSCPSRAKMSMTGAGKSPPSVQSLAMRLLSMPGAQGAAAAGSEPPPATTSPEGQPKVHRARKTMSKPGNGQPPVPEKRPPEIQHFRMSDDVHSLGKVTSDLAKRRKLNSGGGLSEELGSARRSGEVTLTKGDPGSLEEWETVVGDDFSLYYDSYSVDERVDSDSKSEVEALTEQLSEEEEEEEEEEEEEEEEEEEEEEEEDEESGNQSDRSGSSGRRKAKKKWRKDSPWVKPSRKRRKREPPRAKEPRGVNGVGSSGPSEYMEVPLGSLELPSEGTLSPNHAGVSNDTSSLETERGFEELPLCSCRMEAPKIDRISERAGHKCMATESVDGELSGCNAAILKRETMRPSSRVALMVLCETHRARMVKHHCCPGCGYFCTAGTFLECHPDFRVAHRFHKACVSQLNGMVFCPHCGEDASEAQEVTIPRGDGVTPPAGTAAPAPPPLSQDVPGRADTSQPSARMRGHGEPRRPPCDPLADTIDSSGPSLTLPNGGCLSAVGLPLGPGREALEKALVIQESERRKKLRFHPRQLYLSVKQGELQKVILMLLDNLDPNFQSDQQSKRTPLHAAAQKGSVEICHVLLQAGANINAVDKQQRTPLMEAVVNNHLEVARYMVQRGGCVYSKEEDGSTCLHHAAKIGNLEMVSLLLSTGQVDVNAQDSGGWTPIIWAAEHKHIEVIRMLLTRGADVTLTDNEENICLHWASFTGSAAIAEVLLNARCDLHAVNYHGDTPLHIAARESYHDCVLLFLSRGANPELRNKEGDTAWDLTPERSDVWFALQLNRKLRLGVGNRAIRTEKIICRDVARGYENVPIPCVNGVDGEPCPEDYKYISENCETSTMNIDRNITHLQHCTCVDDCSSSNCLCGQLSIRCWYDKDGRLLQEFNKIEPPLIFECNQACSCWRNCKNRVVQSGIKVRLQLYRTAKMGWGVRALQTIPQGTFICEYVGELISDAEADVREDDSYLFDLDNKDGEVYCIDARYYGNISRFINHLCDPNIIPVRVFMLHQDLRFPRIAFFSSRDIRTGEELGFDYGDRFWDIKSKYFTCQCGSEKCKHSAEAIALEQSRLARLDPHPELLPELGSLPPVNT
# Assay: qHTS Assay for Inhibitors of Histone Lysine Methyltransferase G9a; further: nearly all actives have a fitted effect of over 75% in size
# Details: G9a H3K9 monomethylation, AlphaScreen, 2 h; activity, negative = inhibition: at 59 µM (top of the series) unless noted
# Outline: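 Chemiluminescent proximity detection of H3K9 monomethylation, read after 10 min bead incubation in the dark. Reaction: 20 nM G9a, 500 nM biotin-H3K9 peptide, 20 uM SAM cofactor, 2 h, room temperature, following 15 min enzyme-compound preincubation.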
# On the % scale 0 is the no-effect control and ±100 the full control effect; potency means the concentration at half of the fitted maximal effect; tags describe the fitted curve by direction and shape.
Structure (SMILES),Potency,"activity, negative = inhibition"
Cn1c(=O)c(C(=O)c2ccccc2)nc2ccccc21,inactive,
Cc1cccc(-c2nsc(SCC(=O)Nc3cc(C)on3)n2)c1,"inconclusive: 39.8 µM [inhibitor, partial curve, poor fit]",
Cc1cc(CN(C)C(=O)c2cc(COc3ccc4ncccc4c3)on2)on1,"inconclusive: 56.2 µM [inhibitor, partial curve, poor fit]",
COC(=O)NC(=C(Cl)Cl)S(=O)(=O)c1ccccc1,"inconclusive: 22.4 µM [inhibitor, single point]",
Cc1cc(C)n(/N=C/c2ccccc2)c(=O)c1C#N,"inconclusive: 1.58 µM [inhibitor, single point]",
O=C(Nc1ccc(S(=O)(=O)Nc2nccs2)cc1)c1nn(-c2ccc(F)cc2)ccc1=O,"inconclusive: 79.4 µM [inhibitor, single point]",
CCO[C@H]1OC(C(=O)N2CCCCCCC2)=C[C@@H](c2ccccc2)[C@@H]1CCCO,inactive,
COc1ccccc1N1CCN(CCCCOc2ccc(F)cc2)CC1,,inconclusive: -64.9% [inhibitor]
Cc1ccc2nc(COc3ccccc3NC(=O)C(C)(C)C)cc(=O)n2c1,inactive,
O=C(CSc1nc2[nH]ncc2c(=O)[nH]1)NCCc1ccccc1,inactive,
CC(=O)c1c(C)nc2ccc(Br)cc2c1C(=O)O,"inconclusive: 100 µM [inhibitor, single point]",
O=C(c1ccc([N+](=O)[O-])o1)N1CCN(c2nc3c(F)cc(F)cc3s2)CC1,active: 44.7 µM,
CCC(=O)c1ccc(OCC(=O)OCC(=O)NCC2CCCCC2)cc1,,inactive: 10.9% [at 0.501 µM]
CN(C(=O)c1ccc2c(c1)OCCO2)c1c(N)n(Cc2ccccc2)c(=O)[nH]c1=O,"inconclusive: 89.1 µM [inhibitor, partial curve, poor fit]",
COc1ccc2c(c1)O[C@@]1(CCCC[C@@H]1C)CC2=O,,inactive: -5.11% [at 12.7 µM]
Cn1nnc(NC(=S)NC(=O)c2cc3ccccc3o2)n1,"inconclusive: 3.55 µM [inhibitor, single point]",
CCN(CC)c1ccc(NC(=S)NCC2CCCO2)cc1 (stereo not given),"inconclusive: 50.1 µM [inhibitor, partial curve, poor fit]",
CC[N+](CC)(CC)CC[C@](O)(c1ccccc1)C1CCCCC1,inactive,
Cc1ccccc1N/N=C1\CCCNC1=O,"inconclusive: 22.4 µM [inhibitor, partial curve, poor fit]",
NC(=O)CC(NC(=O)Cc1cccc2ccccc12)c1ccc(NCc2ccccn2)c([N+](=O)[O-])c1 (stereo not given),,inconclusive: -61.5% [inhibitor]
Cc1ccc(NC(=O)CC(NCC2CCCO2)C(=O)O)cc1C (stereo not given),active: 2.24 µM,
COc1cc(NC(=O)Nc2ccc(C)cc2)cc([N+](=O)[O-])c1,,inactive: 9.42% [at 2.33 µM]
CN(C)c1ccc(/C=N/NC(=O)C(=O)/C=C2\NC3(CCCC3)Cc3ccccc32)cc1,"inconclusive: 7.08 µM [inhibitor, full curve]",
O=C(Cc1ccccc1)NNC(=O)c1cnccn1,active: 1.78 µM,

Structure (SMILES),Potency,"activity, negative = inhibition"
CC(=O)/C(=N\Nc1ccccc1)Sc1cccc2cccnc12,inactive,
Cc1cc(C(=O)NP(=O)(N2CCOCC2)N2CCOCC2)c(C)n1-c1ccc(N(C)C)cc1,active: 22.4 µM,
Cc1ccc(C(=O)Nc2ccc3c(c2)OCCO3)cc1,inactive,
CCn1cc(/C=C(\NC(=O)c2ccc(OC)c(OC)c2)C(=O)N2CCN(C)CC2)c2ccccc21,"inconclusive: 50.1 µM [inhibitor, partial curve, poor fit]",
COc1ccc(CCNC(=O)c2ccc3c(c2)N(Cc2ccc(F)cc2)C(=O)CS3)cc1OC,"inconclusive: 22.4 µM [inhibitor, single point]",
C=CCNC(=S)NC(=O)c1ccc(C)c(Br)c1,"inconclusive: 79.4 µM [inhibitor, partial curve, poor fit]",
C(=Nc1cccc2c(N=Cc3ccco3)cccc12)c1ccco1,active: 39.8 µM,
Cc1ccccc1Nc1nnc(SCC(=O)c2cc3ccccc3o2)s1,"inconclusive: 25.1 µM [inhibitor, single point]",
O=C(COc1ccccc1-c1nc(-c2ccccc2)no1)Nc1cccc([N+](=O)[O-])c1,"inconclusive: 28.2 µM [inhibitor, single point]",
CCOc1cc2[nH]c(=S)n(CCCN(CC)CC)c(=O)c2cc1OCC,"inconclusive: 25.1 µM [inhibitor, single point]",
O=C(CN1CCCc2ccccc21)NCCc1ccc(Cl)cc1,"inconclusive: 39.8 µM [inhibitor, single point]",
Cc1ccc(CC(=O)NCCN2CCOCC2)cc1,inactive,
CCOC(=O)c1c(-c2ccccc2)oc2ccc(N(C(C)=O)S(=O)(=O)c3ccc(CC)cc3)cc12,inactive,
Cn1c(SCc2cc(=O)n3cc(Br)ccc3n2)nnc1C1COc2ccccc2O1 (stereo not given),inactive,
O=C(c1nc(-c2ccc(Cl)cc2)n2c1CCCCC2)N1CCN(c2ccccc2)CC1,"inconclusive: 17.8 µM [inhibitor, partial curve]",
Cc1cc2oc(=O)cc(CSc3nnc(-c4cccs4)o3)c2cc1C(C)C,active: 35.5 µM,
COc1ccc(CCNC(=O)C(=O)NCC(c2ccco2)S(=O)(=O)c2cccs2)cc1OC (stereo not given),inactive,
COc1ccc(N=C2SC(CC(=O)Nc3ccccc3OC)C(=O)N2Cc2ccco2)cc1 (stereo not given),"inconclusive: 25.1 µM [inhibitor, partial curve, poor fit]",
CCc1ccc(C(C)NC(=O)c2cc(C)oc2C)cc1 (stereo not given),"inconclusive: 35.5 µM [inhibitor, single point]",
CC1C(=O)N2CCCc3cc(NS(=O)(=O)c4ccc([N+](=O)[O-])cc4)cc1c32 (stereo not given),"inconclusive: 44.7 µM [inhibitor, partial curve, poor fit]",
CSC(=S)NCc1cccnc1,"inconclusive: 70.8 µM [inhibitor, single point]",
Cc1ccc(OCCn2cnc3c2c(=O)n(C)c(=O)n3C)cc1,active: 44.7 µM,
N#Cc1c(N)sc(=S)c2c1CCCC2,active: 7.08 µM,
COc1cc(CNC(=O)c2cc(C(=O)NCc3cc(OC)cc(OC)c3)n(C)n2)cc(OC)c1,"inconclusive: 79.4 µM [inhibitor, partial curve, poor fit]",

Structure (SMILES),Potency,"activity, negative = inhibition"
COCCCNC(=S)Nc1ccc2nc(N3CCOCC3)cc(C)c2c1,"inconclusive: 79.4 µM [inhibitor, single point]",
Clc1cc(Cl)c2nc(N3CCCCC3)sc2c1,,inconclusive: -72.4% [inhibitor]
CCc1ccc(-c2nc(CS(=O)CC(=O)NCCc3ccc(C)cc3)c(C)o2)cc1 (stereo not given),"inconclusive: 25.1 µM [inhibitor, partial curve, poor fit]",
CCOc1ccc(N(C)C(=O)c2oc(=O)c3ccccc3c2-c2ccccc2)cc1,inactive,
CC(=O)C1=C(O)C(=O)N(c2ccc(Br)cc2)C1c1ccc([N+](=O)[O-])cc1 (stereo not given),"inconclusive: 89.1 µM [inhibitor, single point]",
Cc1c(C(=O)Nc2ccccc2)sc2nc(-c3ccccc3)cn12,"inconclusive: 89.1 µM [inhibitor, single point]",
Cc1cc(N/N=C/c2ccc(O)cc2O)nc(N2CCOCC2)n1,"inconclusive: 31.6 µM [inhibitor, partial curve, poor fit]",
c1ccc(-c2nnc3sc(Cc4cccs4)nn23)cc1,"inconclusive: 28.2 µM [inhibitor, single point]",
COc1ccc(N2CCN(C(=O)CCCOc3cc(=O)n(C)c4ccccc34)CC2)cc1,active: 79.4 µM,
c1ccc(Cn2c(-c3cncs3)nc3ccccc32)cc1,"inconclusive: 7.94 µM [inhibitor, single point]",
O=C(COc1ccc2ccccc2c1)Nc1nc2ccccc2[nH]1,"inconclusive: 17.8 µM [inhibitor, partial curve, poor fit]",
CCCCc1n[nH]c(=S)n1Cc1ccc(C)cc1,active: 1.78 µM,
COc1ccc(-n2c(C)cc(C(=O)Cn3c(NCCO)nc4ccccc43)c2C)cc1,active: 50.1 µM,
COc1ccc(-n2c(SCC(=O)Nc3nccs3)nc3c(c2=O)SCC3)cc1,"inconclusive: 35.5 µM [inhibitor, partial curve, poor fit]",
Cc1ccc2cc(CN(Cc3ccc4c(c3)OCO4)Cc3nnnn3Cc3ccco3)c(=O)[nH]c2c1,"inconclusive: 3.16 µM [inhibitor, single point]",
O=c1cc(CSc2nnc(-c3cccs3)n2Cc2ccccc2)nc2sc3ccccc3n12,"inconclusive: 44.7 µM [inhibitor, partial curve]",
OC(CNC1CCCCCC1)COc1cccc2ccccc12 (stereo not given),active: 44.7 µM,
O=C(COc1ccccc1)N1CCN(C(=O)c2cccs2)CC1,"inconclusive: 89.1 µM [inhibitor, single point]",
CCc1cccc(CC)c1NC(=O)CCCSc1nc2ccccc2s1,"inconclusive: 44.7 µM [inhibitor, partial curve]",
CCc1ccc(Nc2ccc(C(N)=O)cc2[N+](=O)[O-])cc1,"inconclusive: 28.2 µM [inhibitor, single point]",
Cc1cc(C)c2nc(SCC(=O)N3CC(=O)Nc4ccccc43)c(C#N)cc2c1,active: 10 µM,
O=C(N/N=C/c1ccc(Cl)cc1Cl)Nc1ccccc1,,inactive: 29.1% [at 0.501 µM]
